Source: PubChem BioAssay AID504466 (National Center for Advancing Translational Sciences (NCATS), 2011)
Hit rate of the full screen: of about 330,000 compounds, about 4,200 (1.3%) were called active. This list was built around the results that the source calls inconclusive (neither active nor inactive); the mix of calls is not that of the screen. Calls come from the whole dose curve; as a rule, active = well fitted activation curve with a large enough effect; inconclusive = small, poorly fitted or top-dose-only effect; inactive = no such curve, though single readings can be large or run the other way. Where the call is inconclusive, the potency comes from a doubtful curve fit.

Assay: qHTS screen for small molecules that induce genotoxicity in human embryonic kidney (HEK293T) cells expressing luciferase-tagged ELG1; note: nearly all actives have a fitted effect of over 60% in size; for activity change, positive = activation: % of control where 0% means no effect
Conditions: HEK293T ELG1-luciferase reporter, luminescence, 16 h; series mostly up to 46 µM; activity change, positive = activation: at the top concentration
Outline: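 Cells (2,000/well) expressing the ELG1-luciferase fusion are dosed by pin tool and kept 16 hr at 37 °C, 5% CO2. Signal comes from ONE-Glo luciferase reagent after 30 min at room temperature.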
Potency is the fitted concentration of half-maximal effect; tags give direction and shape of the fitted curve.

SMILES | Potency | activity change, positive = activation
O=C(NC1CCCCC1)c1noc2c1CCCCC2 | active: 9.2 µM | –
Cc1ccc(/C(N)=N/OC(=O)c2ccc(C)cc2Cl)cc1 | inconclusive: 0.461 µM [activator, full curve] | –
O=C(c1ccccc1)c1ccc(N2CCNCC2)cc1 | inconclusive: 23.1 µM [activator, partial curve, poor fit] | –
COCC(C)n1c(C)cc(C(=O)COC(=O)c2cc(=O)[nH]c3ccccc23)c1C (stereo unspecified) | inconclusive: 2.59 µM [activator, partial curve] | –
Clc1nc2sccn2c1/C=N/n1cnc2ccccc21 | inconclusive: 10.3 µM [activator, partial curve, poor fit] | –
CCCC1Oc2ccccc2C(=O)N(CC(=O)c2ccc3c(c2)OCCO3)C1=O (stereo unspecified) | inconclusive: 20.6 µM [activator, partial curve, poor fit] | –
CN(N=Nc1cccc([N+](=O)[O-])c1)c1ccccc1 | inconclusive: 23.1 µM [activator, partial curve, poor fit] | –
Cc1c(NC(=O)c2ccc(-c3ccccc3)cc2)cccc1C(=O)O | active: 0.291 µM | –
c1cn(-c2ccc(-c3ccnc4ncnn34)cc2)cn1 | inconclusive: 23.1 µM [activator, partial curve, poor fit] | –
COc1cccc(-c2cc(C(=O)N3CCc4ccccc4C3)[nH]n2)c1 | inconclusive: 18.3 µM [activator, partial curve, poor fit] | –
Cc1c(/C(O)=C2/C(=O)C(=O)N(CCN3CCOCC3)C2c2cccs2)cnn1-c1ccccc1 (stereo unspecified) | active: 1.84 µM | –
COC(=O)CCC(=O)NC(=S)Nc1cc(Cl)ccc1Cl | – | inactive: 0.898%
O=C(Nc1nc2c(F)cc(F)cc2s1)C1CC1 | inconclusive: 16.4 µM [activator, partial curve, poor fit] | –
CCOCC(=O)Nc1nc2ccc(C)cc2s1 | inconclusive: 5.17 µM [activator, partial curve] | –
COc1cc(CNc2ccc(NC(C)=O)cc2)ccc1OCc1ccccc1C | inconclusive: 23.1 µM [activator, partial curve, poor fit] | –
COc1cccc(Nc2nc(CC(C)=O)ns2)c1 | inconclusive: 25.9 µM [activator, partial curve, poor fit] | –
N#C/C(N)=C(/C#N)N=Cc1cccc(Cl)c1 | – | inactive: 0.98%
O=C(Nc1ccc2c(c1)OCCO2)c1c(F)cccc1F | active: 3.26 µM | –
COc1ccc(-c2nnn(Cc3ccccc3F)n2)cc1 | inconclusive: 14.6 µM [activator, partial curve] | –
C(=N\N1CCN(Cc2ccccc2)CC1)/c1cccs1 | inconclusive: 18.4 µM [activator, single point] | –
N/C(=N\OC(=O)COc1ccc(Br)cc1Cl)c1ccncc1 | inconclusive: 5.17 µM [activator, full curve] | –
COc1ccc(NC(=O)c2ccccc2NC(=O)c2cccs2)cc1 | inconclusive: 25.9 µM [activator, single point] | –
C/C(NCCCn1ccnc1)=C(\C#N)C(N)=O | inconclusive: 25.1 µM [activator, partial curve, poor fit] | –
COc1ccc2cc(C(N)=O)c(=Nc3ccccc3)oc2c1 | inconclusive: 29.1 µM [activator, single point] | –

SMILES | Potency | activity change, positive = activation
O=C(Nc1ccccc1)C(=O)c1c[nH]c2ccccc12 | active: 0.92 µM | –
N/C(=N\OC(=O)c1cccnc1)c1ccc(Cl)cc1Cl | inconclusive: 20.6 µM [activator, partial curve, poor fit] | –
Cc1cccc(-n2c(C)cc(/C=N\NC(=O)c3cccs3)c2C)c1 | inconclusive: 0.92 µM [activator, full curve] | –
Cc1ccc(N2C(=O)c3ccccc3NC2c2ccccc2O)cc1 (stereo unspecified) | inconclusive: 9.2 µM [activator, partial curve] | –
CCOc1ccc2nc(NC(=O)c3ccco3)sc2c1 | active: 1.3 µM | –
S=C(Nc1ccccc1)Nc1nc2ccccc2n1CCOc1ccccc1 | inconclusive: 29.1 µM [activator, single point] | –
CCC(C)c1ccc(Nc2ncccc2C#N)cc1 (stereo unspecified) | inconclusive: 23.1 µM [activator, partial curve, poor fit] | –
COc1ccc2c(OC)cc(=O)n(C)c2c1 | inconclusive: 23.1 µM [activator, single point] | –
COc1cc2nc(N(CCCN(C)C)C(=O)c3ccc(S(=O)(=O)N(C)C4CCCCC4)cc3)sc2cc1OC | inconclusive: 16.4 µM [activator, single point] | –
CN(C)/C=C/C(=O)c1ccccc1OCc1cnc(Cl)s1 | – | inactive: -3.96%
Nc1c(Cl)ncnc1N/N=C/c1cccc(O)c1 | – | inactive: 2.21%
CC(C)c1ccc(/C=C/C(=O)N2CCCCCC2)cc1 | inconclusive: 23.1 µM [activator, partial curve, poor fit] | –
Cc1ccsc1C1NC(=O)c2c(sc3c2CCCC3)N1 (stereo unspecified) | inconclusive: 20.6 µM [activator, partial curve, poor fit] | –
Cc1ccc2nc3ccc(N4CCCC4)nn3c(=O)c2c1 | inconclusive: 4.61 µM [activator, partial curve, poor fit] | –
O=C(Nc1ccc(-c2cn3ccccc3n2)cc1)c1ccco1 | inconclusive: 2.31 µM [activator, full curve] | –
CC(C)c1ccc(CNc2ccc([N+](=O)[O-])cn2)cc1 | inconclusive: 13 µM [activator, partial curve] | –
CN(C)c1nc(=S)nc(NCc2ccccc2)[nH]1 | inconclusive: 0.206 µM [activator, single point] | –
CCC(C)NC(=O)c1cc2cc3ccc(OC)cc3nc2s1 (stereo unspecified) | inconclusive: 1 µM [activator, partial curve, poor fit] | –
COCC(=O)N1CCC(n2nccc2NC(=O)c2ccccc2OC)CC1 | – | inactive: 23.8%
COc1nc(C)ccc1-c1noc(-c2ccncc2)n1 | inconclusive: 16.4 µM [activator, partial curve] | –
Cc1ccccc1-n1c(C)nnc1SCc1nc2ccccc2s1 | inconclusive: 14.6 µM [activator, partial curve] | –
COc1ccc(-n2nnc3c(=O)n(CC(=O)Nc4ccc5c(c4)OCCO5)cnc32)cc1OC | inconclusive: 25.9 µM [activator, single point] | –
Nc1nc2ccccc2nc1N | inconclusive: 23.1 µM [activator, partial curve, poor fit] | –
CN1C=CC(=C2C(=O)c3ccccc3C2=O)C=C1 | active: 2.91 µM | –

SMILES | Potency | activity change, positive = activation
CC(C)(CO)NCc1ccccc1OCC(=O)Nc1ccccc1 | inconclusive: 29.1 µM [activator, single point] | –
C=C(C)C1Cc2cc3ccc(=O)oc3cc2O1 (stereo unspecified) | inconclusive: 23.1 µM [activator, partial curve, poor fit] | –
COC(=O)c1ccc(CSc2ccc3nnc(-c4ccccc4)n3n2)o1 | inconclusive: 11.6 µM [activator, partial curve, poor fit] | –
CCn1nc(C)c(CNC(=O)C2CCC(=O)N(Cc3ccc(Cl)cc3)C2)c1C (stereo unspecified) | – | inactive: 1.16%
Cc1ccc2[nH]c(=O)c(CN(CCCN(C)C)C(=O)Nc3ccc(Cl)cc3)cc2c1 | – | inactive: 13.4%
O=C(Nc1nc2ccccc2[nH]1)c1cccc(F)c1 | active: 2.91 µM | –
CN(C)c1ccc(C(=O)N=c2sccn2C)cc1[N+](=O)[O-] | active: 9.2 µM | –
COc1cccc(N2CCN(C(=O)c3ccc4nc(N5CCC(C)CC5)sc4c3)CC2)c1 | inconclusive: 1.3 µM [activator, partial curve] | –
Cn1cccc1C(=O)OCC(=O)c1c[nH]c2ccccc12 | inconclusive: 14.6 µM [activator, partial curve] | –
CC(=O)Nc1nc(SCc2cccc3ccccc23)n[nH]1 | inconclusive: 29.1 µM [activator, single point] | –
O=C(CN1CCCCCC1=O)OCc1ncc(-c2ccccc2)o1 | inconclusive: 25.9 µM [activator, partial curve, poor fit] | –
CN(C)c1ccc(C(=O)OCC(=O)NCCNC(=O)COC(=O)c2ccc(N(C)C)cc2)cc1 | inconclusive: 5.17 µM [activator, partial curve] | –
Cc1nc(-c2ccc(Cl)cc2)sc1C1(C)CC(c2cccnc2)=NO1 (stereo unspecified) | inconclusive: 16.4 µM [activator, partial curve, poor fit] | –
CNc1ncc(C(=O)c2ccc(F)cc2)s1 | inconclusive: 13 µM [activator, partial curve] | –
Cn1cc(SCC(=O)Nc2nccs2)c2ccccc21 | active: 20.6 µM | –
CCOC(=O)c1c(C)[nH]c(C(=O)CSc2ccccc2)c1C | active: 0.651 µM | –
CC1Cc2ccccc2N1C(=O)COC(=O)c1ccc(N(C)C)cc1 (stereo unspecified) | – | inactive: 0.276%
O=C(Nc1ccccc1Cl)c1ccc(-c2ccccn2)s1 | inconclusive: 20.6 µM [activator, partial curve] | –
CN(C1=C(NC(=O)c2ccccc2)C(=O)c2ccccc2C1=O)C1CCS(=O)(=O)C1 (stereo unspecified) | – | inactive: -6.81%
CCCCOc1ccc(C(=O)NNC(=O)C2C3CCC(C3)C2C(=O)O)cc1 (stereo unspecified) | inconclusive: 20.6 µM [activator, partial curve, poor fit] | –
O=C(NCC(=O)N(c1ccccc1F)C(C(=O)NC1CCCC1)c1ccco1)c1ccco1 (stereo unspecified) | – | inactive: -5.41%
Cn1c(=O)c2c(SCc3cccnc3)nc(CC(C)(C)C)nc2n(C)c1=O | – | inactive: -6%
O=C1N=C(N2CCOCC2)S/C1=C1\C(=O)N(Cc2ccccc2)c2ccccc21 | inconclusive: 2.59 µM [activator, full curve, poor fit] | –
